In patent publication US20250051460A1 (Boehringer Ingelheim, published 2025):

B1: TPP-22180 (bispecific antibody, human IgG1, kappa)
heavy: QVQLVQSGGGLVQPGGSLRLSCAASGYDFTHYGMNWVRQAPGKGLEWVGWINTYTGEPTYAADFKRRFTFSLDTSKSTAYLQMNSLRAEDTAVYYCAKYPYYYGTSHWYFDVWGQGTLVTVSSASTKGPSVFPLAPSSKSTSGGTAALGCLVKDYFPEPVTVSWNSGALTSGVHTFPAVLQSSGLYSLSSVVTVPSSSLGTQTYICNVNHKPSNTKVDKRV[in this place human IgG1 Fc with changes]GGGGSGGGGSQVQLVQSGAEVKKPGASVKVSCKASGYTFTNYDIIWVRQAPGQGLEWMGYINPYNDGTKYNEKFKGRVTMTRDTSTSTVYMELSSLRSEDTAVYYCARLLKYRRFRYYAIDYWGQGTTVTVSSGGSEGKSSGSGSESKSTGGSDIQMTQSPSSLSASVGDRVTITCRTSENVYSNLAWYQQKPGKAPKLLIYAASNLQSGVPSRFSGSGSGTDYTFTISSLQPEDIATYYCQHFWGSPFTFGQGTKLEIK
light: DIQLTQSPSSLSASVGDRVTITCSASQDISNYLNWYQQKPGKAPKVLIYFTSSLHSGVPSRFSGSGSGTGFTLTISSLQPEDFATYYCQQYSTVPWTFGQGTKVEIKRTVAAPSVFIFPPSDEQLKSGTASVVCLLNNFYPREAKVQWKVDNALQSGNSQESVTEQDSKDSTYSLSSTLTLSKADYEKHKVYACEVTHQGLSSPVTKSFNRGEC
B2: TPP-22204 (bispecific antibody, human IgG1, kappa)
heavy: QVQLVQSGGGLVQPGGSLRLSCAASGYDFTHYGMNWVRQAPGKGLEWVGWINTYTGEPTYAADFKRRFTFSLDTSKSTAYLQMNSLRAEDTAVYYCAKYPYYYGTSHWYFDVWGQGTLVTVSSASTKGPSVFPLAPSSKSTSGGTAALGCLVKDYFPEPVTVSWNSGALTSGVHTFPAVLQSSGLYSLSSVVTVPSSSLGTQTYICNVNHKPSNTKVDKRV[in this place human IgG1 Fc with changes]GGGGSGGGGSQVQLVQSGAEVKKPGASVKVSCKASGYTFTNYDIIWVRQAPGQCLEWMGYINPYNDGTKYNEKFKGRVTMTRDTSTSTVYMELSSLRSEDTAVYYCARLLKYRRFRYYAIDYWGQGTTVTVSSGGSEGKSSGSGSESKSTGGSDIQMTQSPSSLSASVGDRVTITCRTSENVYSNLAWYQQKPGKAPKLLIYAASNLQSGVPSRFSGSGSGTDYTFTISSLQPEDIATYYCQHFWGSPFTFGCGTKLEIK
light: DIQLTQSPSSLSASVGDRVTITCSASQDISNYLNWYQQKPGKAPKVLIYFTSSLHSGVPSRFSGSGSGTGFTLTISSLQPEDFATYYCQQYSTVPWTFGQGTKVEIKRTVAAPSVFIFPPSDEQLKSGTASVVCLLNNFYPREAKVQWKVDNALQSGNSQESVTEQDSKDSTYSLSSTLTLSKADYEKHKVYACEVTHQGLSSPVTKSFNRGEC
B3: TPP-22192 (bispecific antibody, human IgG1, kappa)
heavy: QVQLVQSGGGLVQPGGSLRLSCAASGYDFTHYGMNWVRQAPGKGLEWVGWINTYTGEPTYAADFKRRFTFSLDTSKSTAYLQMNSLRAEDTAVYYCAKYPYYYGTSHWYFDVWGQGTLVTVSSASTKGPSVFPLAPSSKSTSGGTAALGCLVKDYFPEPVTVSWNSGALTSGVHTFPAVLQSSGLYSLSSVVTVPSSSLGTQTYICNVNHKPSNTKVDKRV[in this place human IgG1 Fc with changes]GGGGSGGGGSDIQMTQSPSSLSASVGDRVTITCRTSENVYSNLAWYQQKPGKAPKLLIYAASNLQSGVPSRFSGSGSGTDYTFTISSLQPEDIATYYCQHFWGSPFTFGQGTKLEIKGGSEGKSSGSGSESKSTGGSQVQLVQSGAEVKKPGASVKVSCKASGYTFTNYDIIWVRQAPGQGLEWMGYINPYNDGTKYNEKFKGRVTMTRDTSTSTVYMELSSLRSEDTAVYYCARLLKYRRFRYYAIDYWGQGTTVTVSS
light: DIQLTQSPSSLSASVGDRVTITCSASQDISNYLNWYQQKPGKAPKVLIYFTSSLHSGVPSRFSGSGSGTGFTLTISSLQPEDFATYYCQQYSTVPWTFGQGTKVEIKRTVAAPSVFIFPPSDEQLKSGTASVVCLLNNFYPREAKVQWKVDNALQSGNSQESVTEQDSKDSTYSLSSTLTLSKADYEKHKVYACEVTHQGLSSPVTKSFNRGEC
B4: TPP-22190 (bispecific antibody, human IgG1, kappa)
heavy: QVQLVESGGGLVQPGGSLRLSCAASGYDFTHYGMNWVRQAPGKGLEWVGWINTYTGEPTYAADFKRRFTFSLDTSKSTAYLQMNSLRAEDTAVYYCAKYPYYYGTSHWYFDVWGQGTLVTVSSASTKGPSVFPLAPSSKSTSGGTAALGCLVKDYFPEPVTVSWNSGALTSGVHTFPAVLQSSGLYSLSSVVTVPSSSLGTQTYICNVNHKPSNTKVDKRV[in this place human IgG1 Fc with changes]GGGGSGGGGSDIQMTQSPSSLSASVGDRVTITCRTSENVYSNLAWYQQKPGKAPKLLIYAASNLQSGVPSRFSGSGSGTDYTFTISSLQPEDIATYYCQHFWGSPFTFGQGTKLEIKGGSEGKSSGSGSESKSTGGSQVQLVQSGAEVKKPGASVKVSCKASGYTFTNYDIIWVRQAPGQGLEWMGYINPYNDGTKYNEKFKGRVTMTRDTSTSTVYMELSSLRSEDTAVYYCARLLKYRRFRYYAIDYWGQGTTVTVSS
light: DIQLTQSPSSLSASVGDRVTITCSASQDISNYLNWYQQKPGKAPKVLIYFTSSLHSGVPSRFSGSGSGTGFTLTISSLQPEDFATYYCQQYSTVPWTFGQGTKVEIKRTVAAPSVFIFPPSDEQLKSGTASVVCLLNNFYPREAKVQWKVDNALQSGNSQESVTEQDSKDSTYSLSSTLTLSKADYEKHKVYACEVTHQGLSSPVTKSFNRGEC
B5: TPP-22191 (bispecific antibody, human IgG1, kappa)
heavy: EVQLVQSGGGLVQPGGSLRLSCAASGYDFTHYGMNWVRQAPGKGLEWVGWINTYTGEPTYAADFKRRFTFSLDTSKSTAYLQMNSLRAEDTAVYYCAKYPYYYGTSHWYFDVWGQGTLVTVSSASTKGPSVFPLAPSSKSTSGGTAALGCLVKDYFPEPVTVSWNSGALTSGVHTFPAVLQSSGLYSLSSVVTVPSSSLGTQTYICNVNHKPSNTKVDKRV[in this place human IgG1 Fc with changes]GGGGSGGGGSDIQMTQSPSSLSASVGDRVTITCRTSENVYSNLAWYQQKPGKAPKLLIYAASNLQSGVPSRFSGSGSGTDYTFTISSLQPEDIATYYCQHFWGSPFTFGQGTKLEIKGGSEGKSSGSGSESKSTGGSQVQLVQSGAEVKKPGASVKVSCKASGYTFTNYDIIWVRQAPGQGLEWMGYINPYNDGTKYNEKFKGRVTMTRDTSTSTVYMELSSLRSEDTAVYYCARLLKYRRFRYYAIDYWGQGTTVTVSS
light: DIQLTQSPSSLSASVGDRVTITCSASQDISNYLNWYQQKPGKAPKVLIYFTSSLHSGVPSRFSGSGSGTGFTLTISSLQPEDFATYYCQQYSTVPWTFGQGTKVEIKRTVAAPSVFIFPPSDEQLKSGTASVVCLLNNFYPREAKVQWKVDNALQSGNSQESVTEQDSKDSTYSLSSTLTLSKADYEKHKVYACEVTHQGLSSPVTKSFNRGEC
B6: TPP-22215 (bispecific antibody, human IgG1, kappa)
heavy: EVQLVQSGGGLVQPGGSLRLSCAASGYDFTHYGMNWVRQAPGKGLEWVGWINTYTGEPTYAADFKRRFTFSLDTSKSTAYLQMNSLRAEDTAVYYCAKYPYYYGTSHWYFDVWGQGTLVTVSSASTKGPSVFPLAPSSKSTSGGTAALGCLVKDYFPEPVTVSWNSGALTSGVHTFPAVLQSSGLYSLSSVVTVPSSSLGTQTYICNVNHKPSNTKVDKRV[in this place human IgG1 Fc with changes]GGGGSGGGGSDIQMTQSPSSLSASVGDRVTITCRTSENVYSNLAWYQQKPGKAPKLLIYAASNLQSGVPSRFSGSGSGTDYTFTISSLQPEDIATYYCQHFWGSPFTFGCGTKLEIKGGSEGKSSGSGSESKSTGGSQVQLVQSGAEVKKPGASVKVSCKASGYTFTNYDIIWVRQAPGQCLEWMGYINPYNDGTKYNEKFKGRVTMTRDTSTSTVYMELSSLRSEDTAVYYCARLLKYRRFRYYAIDYWGQGTTVTVSS
light: DIQLTQSPSSLSASVGDRVTITCSASQDISNYLNWYQQKPGKAPKVLIYFTSSLHSGVPSRFSGSGSGTGFTLTISSLQPEDFATYYCQQYSTVPWTFGQGTKVEIKRTVAAPSVFIFPPSDEQLKSGTASVVCLLNNFYPREAKVQWKVDNALQSGNSQESVTEQDSKDSTYSLSSTLTLSKADYEKHKVYACEVTHQGLSSPVTKSFNRGEC

Key:
Assay in all cases: cell-based or functional assay
human TrkB receptor = human TrkB receptor (human, UniProt Q16620 32-822)
Chain of human TrkB receptor (Q16620 32-822): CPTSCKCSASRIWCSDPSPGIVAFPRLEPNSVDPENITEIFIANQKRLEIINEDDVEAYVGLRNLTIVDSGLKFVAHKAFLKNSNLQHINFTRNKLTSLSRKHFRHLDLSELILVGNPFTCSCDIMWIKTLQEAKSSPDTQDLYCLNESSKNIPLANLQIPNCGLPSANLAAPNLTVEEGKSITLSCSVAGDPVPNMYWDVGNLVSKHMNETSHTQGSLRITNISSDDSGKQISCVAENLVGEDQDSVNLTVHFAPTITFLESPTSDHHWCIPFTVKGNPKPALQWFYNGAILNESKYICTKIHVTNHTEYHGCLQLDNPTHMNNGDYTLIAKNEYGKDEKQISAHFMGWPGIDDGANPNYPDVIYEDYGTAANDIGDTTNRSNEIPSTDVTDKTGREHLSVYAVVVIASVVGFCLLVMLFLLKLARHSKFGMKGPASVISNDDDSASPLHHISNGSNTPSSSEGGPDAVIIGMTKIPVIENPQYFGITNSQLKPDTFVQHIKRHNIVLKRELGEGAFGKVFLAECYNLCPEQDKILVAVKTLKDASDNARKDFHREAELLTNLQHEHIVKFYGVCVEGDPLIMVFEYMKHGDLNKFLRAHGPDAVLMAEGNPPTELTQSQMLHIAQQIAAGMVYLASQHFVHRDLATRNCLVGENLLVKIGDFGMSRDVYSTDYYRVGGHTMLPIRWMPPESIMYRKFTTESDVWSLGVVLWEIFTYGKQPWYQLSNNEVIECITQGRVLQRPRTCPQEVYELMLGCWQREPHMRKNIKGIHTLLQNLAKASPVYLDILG

rat TrkB receptor = rat TrkB receptor (rat, UniProt Q63604 32-821)
Chain of rat TrkB receptor (Q63604 32-821): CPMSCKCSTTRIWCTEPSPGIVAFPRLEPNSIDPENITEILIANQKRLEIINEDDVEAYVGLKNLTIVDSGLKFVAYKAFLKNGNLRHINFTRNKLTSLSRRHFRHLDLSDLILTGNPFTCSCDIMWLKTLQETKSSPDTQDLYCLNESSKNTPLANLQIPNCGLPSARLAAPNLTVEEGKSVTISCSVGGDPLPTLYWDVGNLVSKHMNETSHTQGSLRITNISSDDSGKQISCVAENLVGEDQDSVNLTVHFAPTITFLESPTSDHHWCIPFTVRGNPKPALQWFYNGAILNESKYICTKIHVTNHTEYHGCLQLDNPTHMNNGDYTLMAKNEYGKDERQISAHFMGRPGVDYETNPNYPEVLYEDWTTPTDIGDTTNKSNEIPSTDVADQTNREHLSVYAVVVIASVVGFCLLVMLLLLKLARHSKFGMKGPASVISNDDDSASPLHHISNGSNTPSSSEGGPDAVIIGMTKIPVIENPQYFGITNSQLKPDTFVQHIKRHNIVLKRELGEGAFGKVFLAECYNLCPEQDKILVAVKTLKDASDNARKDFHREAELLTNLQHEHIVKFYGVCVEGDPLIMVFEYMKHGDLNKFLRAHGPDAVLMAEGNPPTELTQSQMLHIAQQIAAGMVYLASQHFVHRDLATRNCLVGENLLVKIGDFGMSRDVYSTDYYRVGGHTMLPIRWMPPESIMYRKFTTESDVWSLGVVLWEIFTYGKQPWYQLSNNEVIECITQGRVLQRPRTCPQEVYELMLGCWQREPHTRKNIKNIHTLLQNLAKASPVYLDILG

human VEGF-A = molecular target: T1, human VEGF-A (human, UniProt P15692-4 27-191)
T1 sequence (looked up): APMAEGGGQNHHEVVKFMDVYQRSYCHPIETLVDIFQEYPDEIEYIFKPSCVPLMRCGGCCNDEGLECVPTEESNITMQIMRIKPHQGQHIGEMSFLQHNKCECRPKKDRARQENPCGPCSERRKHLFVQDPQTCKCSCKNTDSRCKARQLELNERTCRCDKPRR

| Binder | TrkB-phosphorylation efficacy (AlphaLISA counts) (human TrkB receptor) | TrkB-phosphorylation efficacy relative to parental clone without CC bridge (%) (human TrkB receptor) | TrkB-phosphorylation potency (EC50, nM) (human TrkB receptor) [nM] | TrkB-phosphorylation efficacy (AlphaLISA counts) (rat TrkB receptor) | TrkB-phosphorylation efficacy relative to parental clone without CC bridge (%) (rat TrkB receptor) | TrkB-phosphorylation potency (EC50, nM) (rat TrkB receptor) [nM] | concentration for full inhibition of VEGF-induced HRMEC proliferation (human VEGF-A) [nM] |
| --- | --- | --- | --- | --- | --- | --- | --- |
| B1 | 6640 | 100 | 8.09 | 19700 | 100 | 4.21 |  |
| B2 | 7610 | 115 | 3.88 | 21800 | 111 | 2.01 | 0.25 |
| B3 | 5640 | 100 | 12.2 | 21200 | 100 | 18.9 |  |
| B4 | 4220 | 100 | 9.95 |  |  |  |  |
| B5 | 4850 | 100 | 5.49 |  |  |  |  |
| B6 | 5790 | 119 | 1.12 |  |  |  |  |
